Substitutions are numbered along the chain they refer to. Numbers in names are those of the source. Like-named read-outs stand apart in the source and are kept apart here.

Holding throughout (assay): cell-based or functional assay
Test [1] concerns the target T1, human IL-12 receptor (hIL-12R), heterodimer of hIL-12Rβ1 and hIL-12Rβ2 (human, UniProt P42701 24-662; Q99665 24-862).
The target of test [2] is T1, human IL-12 receptor (hIL-12R), …. The source holds these as a separate data set.
The target is the same in test [3]. This is another data set of the same source.

B1: BCA323.16, anti-hCAIX hIL-12 fusion protein (hIL-12p35 variant C: F188A/Y189A) (other)
heavy 1: EVRLVESGGGLVKPGGSLRLSCAASGFTFSNYYMSWIRQAPEKRLELVSAINSDGGITYYLDTVKGRFTISRDNAKNSLYLQMNSLRAEDTALFYCARHRSGYFSMDYWGQGTSVTVSS[human IgG1 constant region with changes left out here]GGGGSGGGGSGGGGSIWELKKDVYVVELDWYPDAPGEMVVLTCDTPEEDGITWTLDQSSEVLGSGKTLTIQVKEFGDAGQYTCHKGGEVLSHSLLLLHKKEDGIWSTDILKDQKEPKNKTFLRCEAKNYSGRFTCWWLTTISTDLTFSVKSSRGSSDPQGVTCGAATLSAERVRGDNKEYEYSVECQEDSACPAAEESLPIEVMVDAVHKLKYENYTSSFFIRDIIKPDPPKNLQLKPLKNSRQVEVSWEYPDTWSTPHSYFSLTFCVQVQGKSKREKKDRVFTDKTSATVICRKNASISVRAQDRYYSSSWSEWASVPCS
heavy 2: EVRLVESGGGLVKPGGSLRLSCAASGFTFSNYYMSWIRQAPEKRLELVSAINSDGGITYYLDTVKGRFTISRDNAKNSLYLQMNSLRAEDTALFYCARHRSGYFSMDYWGQGTSVTVSSASTKGPSVFPLAPSSKSTSGGTAALGCLVKDYFPEPVTVSWNSGALTSGVHTFPAVLQSSGLYSLSSVVTVPSSSLGTQTYICNVNHKPSNTKVDKKV[human IgG1 Fc with changes left out here]GGGGSGGGGSGGGGSRNLPVATPDPGMFPCLHHSQNLLRAVSNMLQKARQTLEFYPCTSEEIDHEDITKDKTSTVEACLPLELTKNESCLNSRETSFITNGSCLASRKTSFMMALCLSSIYEDLKMYQVEFKTMNAKLLMDPKRQIFLDQNMLAVIDELMQALNFNSETVPQKSSLEEPDAAKTKIKLCILLHAFRIRAVTIDRVMSYLNAS
light: EIVMTQSPATLSVSPGERATLSCKASQNVVSAVAWYQQKPGQSPRLLIYSASNRYTGIPARFSGSGSGTEFTLTISSLQSEDFAAYYCQQYSNYPWTFGGGTKVEIKRTVAAPSVFIFPPSDEQLKSGTASVVCLLNNFYPREAKVQWKVDNALQSGNSQESVTEQDSKDSTYSLSSTLTLSKADYEKHKVYACEVTHQGLSSPVTKSFNRGEC
For the molecule B1, the “Fold Attenuation (Over Fc-IL-12 Control); HEK-Blue IL-12 reporter assay” value (“Fold Attenuation (Over Fc-IL-12 Control)” for short) in test [1] is 15.4 fold.

B2: BCA377, anti-hCAIX hIL-12 fusion protein (hIL-12p40 F82A, K219A) (other)
heavy 1: EVRLVESGGGLVKPGGSLRLSCAASGFTFSNYYMSWIRQAPEKRLELVSAINSDGGITYYLDTVKGRFTISRDNAKNSLYLQMNSLRAEDTALFYCARHRSGYFSMDYWGQGTSVTVSS[human IgG1 constant region with changes left out here]GGGGSGGGGSGGGGSIWELKKDVYVVELDWYPDAPGEMVVLTCDTPEEDGITWTLDQSSEVLGSGKTLTIQVKEAGDAGQYTCHKGGEVLSHSLLLLHKKEDGIWSTDILKDQKEPKNKTFLRCEAKNYSGRFTCWWLTTISTDLTFSVKSSRGSSDPQGVTCGAATLSAERVRGDNKEYEYSVECQEDSACPAAEESLPIEVMVDAVHKLAYENYTSSFFIRDIIKPDPPKNLQLKPLKNSRQVEVSWEYPDTWSTPHSYFSLTFCVQVQGKSKREKKDRVFTDKTSATVICRKNASISVRAQDRYYSSSWSEWASVPCS
heavy 2: EVRLVESGGGLVKPGGSLRLSCAASGFTFSNYYMSWIRQAPEKRLELVSAINSDGGITYYLDTVKGRFTISRDNAKNSLYLQMNSLRAEDTALFYCARHRSGYFSMDYWGQGTSVTVSSASTKGPSVFPLAPSSKSTSGGTAALGCLVKDYFPEPVTVSWNSGALTSGVHTFPAVLQSSGLYSLSSVVTVPSSSLGTQTYICNVNHKPSNTKVDKKV[human IgG1 Fc with changes left out here]GGGGSGGGGSGGGGSRNLPVATPDPGMFPCLHHSQNLLRAVSNMLQKARQTLEFYPCTSEEIDHEDITKDKTSTVEACLPLELTKNESCLNSRETSFITNGSCLASRKTSFMMALCLSSIYEDLKMYQVEFKTMNAKLLMDPKRQIFLDQNMLAVIDELMQALNFNSETVPQKSSLEEPDFYKTKIKLCILLHAFRIRAVTIDRVMSYLNAS
light: B1 light with S92R
Consider B2, for which the “Fold Attenuation (Over Fc-IL-12 Control)” value in test [2] was 460 fold. Moreover, in test [3], the “HEK-IL12 reporter assay Attenuation (summary table)” value (shortened to “HEK-IL12 reporter assay Attenuation”) was 460 fold.

B3: BCA370, anti-hCAIX hIL-12 fusion protein (hIL-12p40 F82A) (other)
heavy 1: EVRLVESGGGLVKPGGSLRLSCAASGFTFSNYYMSWIRQAPEKRLELVSAINSDGGITYYLDTVKGRFTISRDNAKNSLYLQMNSLRAEDTALFYCARHRSGYFSMDYWGQGTSVTVSS[human IgG1 constant region with changes left out here]GGGGSGGGGSGGGGSIWELKKDVYVVELDWYPDAPGEMVVLTCDTPEEDGITWTLDQSSEVLGSGKTLTIQVKEAGDAGQYTCHKGGEVLSHSLLLLHKKEDGIWSTDILKDQKEPKNKTFLRCEAKNYSGRFTCWWLTTISTDLTFSVKSSRGSSDPQGVTCGAATLSAERVRGDNKEYEYSVECQEDSACPAAEESLPIEVMVDAVHKLKYENYTSSFFIRDIIKPDPPKNLQLKPLKNSRQVEVSWEYPDTWSTPHSYFSLTFCVQVQGKSKREKKDRVFTDKTSATVICRKNASISVRAQDRYYSSSWSEWASVPCS
heavy 2: EVRLVESGGGLVKPGGSLRLSCAASGFTFSNYYMSWIRQAPEKRLELVSAINSDGGITYYLDTVKGRFTISRDNAKNSLYLQMNSLRAEDTALFYCARHRSGYFSMDYWGQGTSVTVSSASTKGPSVFPLAPSSKSTSGGTAALGCLVKDYFPEPVTVSWNSGALTSGVHTFPAVLQSSGLYSLSSVVTVPSSSLGTQTYICNVNHKPSNTKVDKKV[human IgG1 Fc with changes left out here]GGGGSGGGGSGGGGSRNLPVATPDPGMFPCLHHSQNLLRAVSNMLQKARQTLEFYPCTSEEIDHEDITKDKTSTVEACLPLELTKNESCLNSRETSFITNGSCLASRKTSFMMALCLSSIYEDLKMYQVEFKTMNAKLLMDPKRQIFLDQNMLAVIDELMQALNFNSETVPQKSSLEEPDFYKTKIKLCILLHAFRIRAVTIDRVMSYLNAS
light: B1 light with S92R
Consider B3, for which the “Fold Attenuation (Over Fc-IL-12 Control)” value in test [2] stood at 18 fold. Also, the “HEK-IL12 reporter assay Attenuation” value in test [3] is 18 fold.

B4: BCA325.16, anti-hCAIX hIL-12 fusion protein (hIL-12p35 variant E: Y189A) (other)
heavy 1: EVRLVESGGGLVKPGGSLRLSCAASGFTFSNYYMSWIRQAPEKRLELVSAINSDGGITYYLDTVKGRFTISRDNAKNSLYLQMNSLRAEDTALFYCARHRSGYFSMDYWGQGTSVTVSS[human IgG1 constant region with changes left out here]GGGGSGGGGSGGGGSIWELKKDVYVVELDWYPDAPGEMVVLTCDTPEEDGITWTLDQSSEVLGSGKTLTIQVKEFGDAGQYTCHKGGEVLSHSLLLLHKKEDGIWSTDILKDQKEPKNKTFLRCEAKNYSGRFTCWWLTTISTDLTFSVKSSRGSSDPQGVTCGAATLSAERVRGDNKEYEYSVECQEDSACPAAEESLPIEVMVDAVHKLKYENYTSSFFIRDIIKPDPPKNLQLKPLKNSRQVEVSWEYPDTWSTPHSYFSLTFCVQVQGKSKREKKDRVFTDKTSATVICRKNASISVRAQDRYYSSSWSEWASVPCS
heavy 2: EVRLVESGGGLVKPGGSLRLSCAASGFTFSNYYMSWIRQAPEKRLELVSAINSDGGITYYLDTVKGRFTISRDNAKNSLYLQMNSLRAEDTALFYCARHRSGYFSMDYWGQGTSVTVSSASTKGPSVFPLAPSSKSTSGGTAALGCLVKDYFPEPVTVSWNSGALTSGVHTFPAVLQSSGLYSLSSVVTVPSSSLGTQTYICNVNHKPSNTKVDKKV[human IgG1 Fc with changes left out here]GGGGSGGGGSGGGGSRNLPVATPDPGMFPCLHHSQNLLRAVSNMLQKARQTLEFYPCTSEEIDHEDITKDKTSTVEACLPLELTKNESCLNSRETSFITNGSCLASRKTSFMMALCLSSIYEDLKMYQVEFKTMNAKLLMDPKRQIFLDQNMLAVIDELMQALNFNSETVPQKSSLEEPDFAKTKIKLCILLHAFRIRAVTIDRVMSYLNAS
light: B1 light
Take B4: in test [1], the “Fold Attenuation (Over Fc-IL-12 Control)” value was found to be 4.5 fold.

B5: BCA371, anti-hCAIX hIL-12 fusion protein (hIL-12p40 K217A) (other)
heavy 1: EVRLVESGGGLVKPGGSLRLSCAASGFTFSNYYMSWIRQAPEKRLELVSAINSDGGITYYLDTVKGRFTISRDNAKNSLYLQMNSLRAEDTALFYCARHRSGYFSMDYWGQGTSVTVSS[human IgG1 constant region with changes left out here]GGGGSGGGGSGGGGSIWELKKDVYVVELDWYPDAPGEMVVLTCDTPEEDGITWTLDQSSEVLGSGKTLTIQVKEFGDAGQYTCHKGGEVLSHSLLLLHKKEDGIWSTDILKDQKEPKNKTFLRCEAKNYSGRFTCWWLTTISTDLTFSVKSSRGSSDPQGVTCGAATLSAERVRGDNKEYEYSVECQEDSACPAAEESLPIEVMVDAVHALKYENYTSSFFIRDIIKPDPPKNLQLKPLKNSRQVEVSWEYPDTWSTPHSYFSLTFCVQVQGKSKREKKDRVFTDKTSATVICRKNASISVRAQDRYYSSSWSEWASVPCS
heavy 2: EVRLVESGGGLVKPGGSLRLSCAASGFTFSNYYMSWIRQAPEKRLELVSAINSDGGITYYLDTVKGRFTISRDNAKNSLYLQMNSLRAEDTALFYCARHRSGYFSMDYWGQGTSVTVSSASTKGPSVFPLAPSSKSTSGGTAALGCLVKDYFPEPVTVSWNSGALTSGVHTFPAVLQSSGLYSLSSVVTVPSSSLGTQTYICNVNHKPSNTKVDKKV[human IgG1 Fc with changes left out here]GGGGSGGGGSGGGGSRNLPVATPDPGMFPCLHHSQNLLRAVSNMLQKARQTLEFYPCTSEEIDHEDITKDKTSTVEACLPLELTKNESCLNSRETSFITNGSCLASRKTSFMMALCLSSIYEDLKMYQVEFKTMNAKLLMDPKRQIFLDQNMLAVIDELMQALNFNSETVPQKSSLEEPDFYKTKIKLCILLHAFRIRAVTIDRVMSYLNAS
light: B1 light with S92R
As to B5, the “Fold Attenuation (Over Fc-IL-12 Control)” value in test [2] is 2 fold. Further, in test [3], the “HEK-IL12 reporter assay Attenuation” value was 2 fold.

Source of the values: patent publication US20240392031A1 (BICARA THERAPEUTICS, published 2024).
